For 67 compounds, cell viability results are on record in the supplement of paper PMC10600219.

Structures can show the parent of a compound that is named as a salt. The full ranking holds about 2,800 compounds; the median of “cell viability relative to vehicle” is about 1.1, and the lowest 2% start at about 0.19. The list shows a part of the results.

The test has as its system NCI-H2228 parental. Briefly: cell viability relative to vehicle (fraction of vehicle); NCI-H2228 is an ALK-positive lung cancer line and DTP means drug-tolerant persister; higher = less growth inhibition. As to conditions: 100 nM; treatment time 6 days. In short, it runs like this:
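Drug-tolerant persister NCI-H2228 cells, produced by 13 days in 1000 nM of a targeted drug, and their parental counterparts were seeded into 384-well plates and, the following day, given the 3114-agent TargetMol anti-cancer compound library at 100 nM or DMSO vehicle. After 6 days, the CellTiter-Glo 3D Cell Viability Assay was used to read ATP. Each entry reports viability compared with vehicle-treated cells.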
With `C[C@@H]1Cc2c([nH]c3ccccc23)[C@@H](c2c(F)cc(/C=C/C(=O)O)cc2F)N1CC(C)(C)F`, the cell viability was 1.15.
To `NC(=O)NCCC(=O)O` [3-Ureidopropionic acid] belongs 1.13; to `N=C1CCCN1Cc1[nH]c(=O)[nH]c(=O)c1Cl` [Tipiracil hydrochloride], 1.14; to `Nc1[nH]cnc2ncnc1-2` [Adenine hydrochloride], 1.15.
To `CC(C)(C)c1cnc(CSc2cnc(NC(=O)C3CCNCC3)s2)o1` belongs 0.636.
To `CC(C)c1c(C(=O)Nc2ccccc2)c(-c2ccccc2)c(-c2ccc(F)cc2)n1CC[C@@H](O)C[C@@H](O)CC(=O)O` [Atorvastatin Calcium] belongs 1.13; to `CNS(=O)(=O)c1ccccc1Nc1nc(Nc2ccc(N3CCN(C)CC3)cc2OC)ncc1Cl` [ALK inhibitor 2], 0.448.
On to `CCN[C@H]1CN(CCCOC)S(=O)(=O)c2sc(S(N)(=O)=O)cc21` [Brinzolamide], for which the cell viability came out at 1.11.
To `CC(C)Oc1ccc(-c2c[nH]cc2CN(C)CCN)cc1` belongs 1.05; to `CC(=O)OCC(=O)[C@@]1(O)CC[C@H]2[C@@H]3CCC4=CC(=O)C=C[C@]4(C)[C@@]3(Cl)[C@@H](Cl)C[C@@]21C` [Dichlorisone Acetate], 0.809; to `COC(=O)Nc1nc2cc(C(=O)c3cccs3)ccc2[nH]1` [Nocodazole], 0.325.
Take `Cc1ccc(C(=O)c2ccc(CC(=O)O)n2C)cc1` [Tolmetin]: the cell viability worked out at 1.26.
Then `FC(F)(F)C(Cl)Br` (configuration not stated) [Anestan], with 1.09; and `O=C(O)CCCCCCCC(=O)O` [Azelaic acid], with 1.25.
Then `COc1cc(Br)c(Nc2nc(-c3c(C)nc4ncccn34)cs2)c(Br)c1`, with 1.04; and `CC(=Cc1ccc(C(=O)O)cc1)c1ccc2c(c1)C(C)(C)CCC2(C)C`, with 0.616; and `O=C(Nc1ccc(O)c(C(=O)O)c1)c1cccc(NC(=O)c2ccco2)c1`, with 1.12.
Then `O=C(Nc1cccc(C(F)(F)F)c1)c1cccc2cc(Oc3cc(CO)ncn3)ccc12`, with 1.09.
Consider `CC(C)(O)[C@H]1CC[C@@](C)([C@H]2[C@@H](O)C[C@@]3(C)[C@@H]4C[C@H](O[C@@H]5O[C@H](CO)[C@@H](O)[C@H](O)[C@H]5O)[C@H]5C(C)(C)[C@@H](O[C@@H]6OC[C@@H](O)[C@H](O)[C@H]6O)CC[C@@]56C[C@@]46CC[C@]23C)O1` [Astragaloside A], for which the cell viability is 1.12.
To `Nc1nc(Nc2ccc3c(c2)CC[C@@H](N2CCCC2)CC3)nn1-c1cc2c(nn1)-c1ccccc1CCC2` [Bemcentinib] belongs 1.12.
To `Cc1nccnc1N1CCCCC1` [Modaline sulfate] belongs 1.03.
To `CN(CC(=O)N(Cc1ccc(C2CCCCC2)cc1)c1ccc(C(=O)O)c(O)c1)S(=O)(=O)c1c(F)c(F)c(F)c(F)c1F` belongs 1.01; to `CN1CCN(C(=O)/C=C/c2ccc([N+](=O)[O-])o2)CC1`, 1.03; to `CC(=O)S[C@@H]1CC2=CC(=O)CC[C@]2(C)[C@H]2CC[C@@]3(C)[C@@H](CC[C@@]34CCC(=O)O4)[C@H]12` [Abbolactone], 1.15.
With `O=S(=O)(c1ccc2c(c1)C(=NO)c1cc(S(=O)(=O)N3CCCCC3)ccc1-2)N1CCCCC1`, the cell viability was found to be 1.
Then `C#Cc1cccc(Nc2ncnc3cc(OC)c(OCCCCCCC(=O)NO)cc23)c1`, with 1.17; and `COc1cccc2c1c(O)c(C(=O)N(C)c1ccc(C(F)(F)F)cc1)c(=O)n2C` [Tasquinimod], with 1.06; and `CC(=O)Nc1ccc(C(=O)Nc2ccccc2N)cc1`, with 0.968.
To `O=C(O)[C@]1(Cc2cccc(Nc3nccs3)n2)CC[C@@H](Oc2cccc(Cl)c2F)CC1` belongs 0.832.
For the compound `CC(Cc1cccc(C(F)(F)F)c1)NCCOC(=O)c1ccccc1` (configuration not stated) [Benfluorex hydrochloride], the cell viability was 0.854.
Regarding `COc1cc2c(NC3CCN(C(C)C)CC3)nc(C3CCCCC3)nc2cc1OCCCN1CCCC1`, the cell viability is 1.18.
Then `C[C@@H](CC[C@@]1(O)O[C@H]2C[C@H]3[C@@H]4CC[C@@H]5C[C@@H](O[C@@H]6O[C@H](CO)[C@H](O)[C@H](O)[C@H]6O[C@@H]6O[C@H](CO)[C@@H](O)[C@H](O)[C@H]6O)CC[C@]5(C)[C@H]4CC[C@]3(C)[C@H]2[C@@H]1C)CO[C@@H]1O[C@H](CO)[C@@H](O)[C@H](O)[C@H]1O` [Timosaponin BII], with 1.09; and `CC(C)Oc1ccc(-c2nc(-c3cccc4c3CC[C@@H]4NCCO)no2)cc1C#N` [Ozanimod], with 1.15.
For `CN1CCC(=C2c3ccccc3C=Cc3ccccc32)CC1` [Cyproheptadine hydrochloride], the cell viability was 1.23.
Then `CO[C@H]1/C=C/O[C@@]2(C)Oc3c(C)c(O)c4c(O)c(c(/C=N/N5CCN(C6CCCC6)CC5)c(O)c4c3C2=O)NC(=O)/C(C)=C\C=C\[C@H](C)[C@H](O)[C@@H](C)[C@@H](O)[C@@H](C)[C@H](OC(C)=O)[C@@H]1C` [Rifapentine], with 1.06; and `O=c1[nH]c(C2CCCN2)nc2c1oc1ccc(Cl)cc12` (configuration not stated) [XL413 hydrochloride], with 1.01.
Then `N=C(N)NC(=N)NCCc1ccccc1` [Phenformin hydrochloride], with 1.39; and `C[C@H]1O[C@H](O[C@H]2[C@H](O)[C@@H](O)[C@@H](O[C@H]3[C@H](O)[C@@H](O)C(O)O[C@@H]3CO)O[C@@H]2CO)[C@H](O)[C@@H](O)[C@@H]1N[C@H]1C=C(CO)[C@@H](O)[C@H](O)[C@H]1O` (some centres not stated) [Acarbose], with 1.03.
To `C[C@@H](Oc1ccc2[nH]nc(/C=C/c3cnn(CCO)c3)c2c1)c1c(Cl)cncc1Cl` belongs 0.429; to `CC[C@H]1[C@@H](O)[C@@H]2[C@H](CC[C@]3(C)[C@@H]([C@H](C)CCC(=O)O)CC[C@@H]23)[C@@]2(C)CC[C@@H](O)C[C@@H]12` [Obeticholic Acid], 0.963; to `CC1(C)CC[C@]2(C(=O)O)CC[C@]3(C)C(=CC[C@@H]4[C@@]5(C)CC[C@H](O[C@@H]6O[C@H](C(=O)O)[C@@H](O)[C@H](O[C@@H]7OC[C@@H](O)[C@H](O)[C@H]7O)[C@H]6O)C(C)(C)[C@@H]5CC[C@]43C)[C@@H]2C1` [Momordin Ic], 1.1.
For `CNC1CCCN(c2c(F)cc3c(=O)c(C(=O)O)cn(C4CC4)c3c2OC)C1` (configuration not stated) [Balofloxacin], the cell viability amounted to 1.08.
On to `Cc1ccc(/C(=C\CN2CCCC2)c2ccccn2)cc1` [Triprolidine hydrochloride], for which the cell viability amounted to 1.07.
To `C=C1/C(=C\C=C2/CCC[C@]3(C)[C@@H]([C@H](C)CCCC(C)(C)O)CC[C@@H]23)C[C@@H](O)C[C@@H]1O` [Calcitriol] belongs 0.818; to `CC[C@H](C)[C@@H]([C@@H](CC(=O)N1CCC[C@H]1[C@H](OC)[C@@H](C)C(=O)N[C@@H](Cc1ccccc1)C(=O)O)OC)N(C)C(=O)[C@@H](NC(=O)[C@@H](NC)C(C)C)C(C)C` [MonoMethyl auristatin F], 0.192; to `COC(=O)c1ccc(N2CCN(C)CC2)c(NC(=O)c2cccc(OC)c2)c1`, 0.995.
For `CCOC(=O)NCCCC(=O)NCCc1ccccc1` [SantacruzaMate A], the cell viability was 0.974.
As for `CCC[C@H](NC(=O)/C(C#N)=C/c1cccc(Br)n1)c1ccccc1` [Degrasyn], the cell viability is 1.05.
Then `CNCCC=C1c2ccccc2CCc2ccccc21` [Nortriptyline hydrochloride], with 0.887; and `OC[C@H]1O[C@@H](OCCc2ccc(O)cc2)[C@H](O)[C@@H](O)[C@@H]1O` [Salidroside], with 0.996.
To `C[C@H](O)[C@H]1CC[C@H]2[C@@H]3CC[C@@H]4C[C@H](O)CC[C@]4(C)[C@H]3CC[C@]12C` [5Beta-Pregnane-3Alpha,20alpha-Diol] belongs 1.25; to `C[C@H]1[C@H](NC(=O)/C(=N\OC(C)(C)C(=O)O)c2csc(N)n2)C(=O)N1S(=O)(=O)O` [Aztreonam], 1.1; to `CCc1c2c(nc3ccc(OC(=O)N4CCC(N5CCCCC5)CC4)cc13)-c1cc3c(c(=O)n1C2)COC(=O)[C@]3(O)CC` [Irinotecan], 0.939.
Consider `CCc1c2c(nc3ccc(OC(=O)N4CCC(N5CCCCC5)CC4)cc13)-c1cc3c(c(=O)n1C2)COC(=O)[C@]3(O)CC` [Irinotecan hydrochloride trihydrate], for which the cell viability was 1.11.
Then `CC(=O)Nc1ccc(S(=O)(=O)Nc2ccc([N+](=O)[O-])cc2)cc1` [Sulfanitran], with 1.03.
Then `CCc1cc(C(N)=S)ccn1` [Ethinamide], with 0.845; and `O=C(NC(NC(=S)Nc1ccc(F)c([N+](=O)[O-])c1)C(Cl)(Cl)Cl)C(c1ccccc1)c1ccccc1` (configuration not stated), with 1.07.
Then `CN(N=O)C(=O)N[C@@H](C=O)[C@@H](O)[C@H](O)[C@H](O)CO` [Streptozocin], with 0.968.
`O=C1Nc2cc(Br)ccc2/C1=C1/Nc2ccccc2/C1=N\O`: the cell viability stood at 0.809.
Turning to `Cn1cc(C2=C(c3ccc(Cl)cc3Cl)C(=O)NC2=O)c2ccccc21`, the cell viability worked out at 1.
To `O=C(N/N=C/c1ccc([N+](=O)[O-])o1)c1ccc(O)cc1` [Nifuroxazide] belongs 1.22; to `CCOc1cc2ncc(C#N)c(Nc3ccc(OCc4ccccn4)c(Cl)c3)c2cc1NC(=O)/C=C/CN(C)C` [Neratinib], 0.879.
Then `Cc1cc(NC(=O)c2cccc(NC(=O)/C=C/CN(C)C)c2)ccc1Nc1nccc(-c2cccnc2)n1`, with 0.951.
Then `Cc1cn([C@@H]2C[C@@H](O)[C@H](CO)O2)c(=O)[nH]c1=O` [Telbivudine], with 1.06; and `NC(=O)c1ncn([C@@H]2O[C@H](CO)[C@@H](O)[C@H]2O)c1O` [Mizoribine], with 1.1.
As for `COc1cc2c(cc1O)[C@@H](Cc1ccc(O)c(Oc3ccc(C[C@@H]4c5cc(OC)c(OC)cc5CCN4C)cc3)c1)N(C)CC2` [Daurisoline], the cell viability worked out at 1.11.
Then `CNCCN(C)Cc1cn[nH]c1-c1ccc(OC2CC(OCCC3CCOCC3)C2)cc1` (configuration not stated), with 1.13.
